The source of these data is PubChem BioAssay AID485344 (National Center for Advancing Translational Sciences (NCATS), 2010).

Out of some 340,000 compounds screened, about 6,900 (2%) were called active. Cut-off read from the data, not from the text of the source: active = inhibition above about 30%; inactive = below that, where a call was filed. This is a selection; strong and weak results do not stand in their true shares. The source gives no active or inactive call for entries shown without one.

Broadly, the inhibition is the change of the read-out against control, counted positive when it falls.

Sequence of UniProt P14416 (P14416 whole entry, looked up): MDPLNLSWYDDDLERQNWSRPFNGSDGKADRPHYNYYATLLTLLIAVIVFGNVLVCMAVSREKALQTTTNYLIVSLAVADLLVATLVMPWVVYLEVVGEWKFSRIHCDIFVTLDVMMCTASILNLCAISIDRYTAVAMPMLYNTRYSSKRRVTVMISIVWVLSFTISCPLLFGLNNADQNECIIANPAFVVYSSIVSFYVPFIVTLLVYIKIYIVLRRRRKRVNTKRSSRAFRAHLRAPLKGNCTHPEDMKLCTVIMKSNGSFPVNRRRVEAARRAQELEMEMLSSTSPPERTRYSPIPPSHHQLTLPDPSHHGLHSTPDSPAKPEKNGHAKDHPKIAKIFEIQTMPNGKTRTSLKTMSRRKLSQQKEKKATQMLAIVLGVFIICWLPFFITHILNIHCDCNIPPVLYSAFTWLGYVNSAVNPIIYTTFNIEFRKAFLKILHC

This assay addresses D(2) dopamine receptor (Homo sapiens) (UniProt P14416). The assay is described as follows: HTS Assay for Allosteric Antagonists of the Human D2 Dopamine Receptor: Primary Screen for Antagonists. Note: 0% is about no effect. The conditions noted are these: HEK293 TREx D2 cells, calcium flux, dopamine EC80; at 10 µM; stronger effect = higher value. The essentials:
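In this primary screen, negative modulation is detected by tracking calcium flux after an EC80 dopamine challenge in inducible HEK293 T-REx D2 cells preexposed to test compound for 180 s.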
(In general: A change in cytosolic calcium serves as a functional read-out for many receptors and channels.)
For the molecule `Cc1oc2ncnc(N3CCCCC3)c2c1C(=O)N1CCN(c2cccc(Cl)c2)CC1`, the inhibition was -6.12%.
Turning to `CCCN1C(=O)C2(c3ccccc31)c1c(oc3ccc(F)cc3c1=O)C(=O)N2CCCOC(C)C` (stereo not given), the inhibition is 8.3%.
The result for `CN(C(=O)CSc1nnc(-c2ccccc2F)o1)C1CCCCC1` reads -6.67%; that for `c1coc(-c2nc3n(n2)C2(CCCCC2)[C@@H]2CCCC[C@@H]2N3)c1`, 20.8%.
The result for `COc1cc(NC(=O)CCc2c(C)nc3cc(-c4ccccc4)nn3c2C)cc(OC)c1OC` reads 4.46%; that for `CCOc1ccc(CN(C(=O)c2cc(=O)c3cc(C)cc(C)c3o2)C2CCS(=O)(=O)C2)cc1` (stereo not given), 4.13%.
The result for `Cc1ccc2c(c1)c(=O)c(C(=O)c1ccc3c(c1)OCO3)cn2Cc1ccc(Cl)cc1` reads -25.1%; that for `CSc1ccc(/C=C/c2nc3ccccc3n2S(=O)(=O)c2cccc(Cl)c2)cc1`, -4.01%.
Regarding `CCC(CC)C(=O)Nc1nnc(SCc2cc(=O)n3cccc(C)c3n2)s1`, the inhibition worked out at 7.38%.
The result for `CCOc1ccc(CN2C(=O)c3ccccc3Sc3ccc(C(=O)O)cc32)cc1` reads -13.3%; that for `O=C(NCCc1ccc(Cl)cc1)C(=O)NCC(c1ccco1)S(=O)(=O)c1ccc(Cl)cc1` (stereo not given), -25.2%.
`Cc1ccc(C(=O)OC2CCOC2=O)cc1NC(=O)c1ccco1` (stereo not given): the inhibition is active: 35.4%.
Turning to `CCCN1CCN(C(=O)CCc2nnc3ccc(N4CCN(c5cccc(OC)c5)CC4)nn23)CC1`, the inhibition was active: 31.8%.
The result for `Clc1ccc(CN2CCC(c3ccccc3)CC2)cc1` reads active: 84.7%; that for `Cc1ccc(Cl)cc1NC(=O)c1oc2ccc(S(=O)(=O)N(C)C3CCCCC3)cc2c1C`, 18.1%; that for `CC(=O)CSc1nnc2cc(C)c3cc(C)cc(C)c3n12`, -3.68%.
`CCc1nonc1NC(=O)c1oc2ccc(Br)cc2c1C`: the inhibition is -11.6%.
The result for `Nc1nc(CN2CCN(c3ccccn3)CC2)nc(Nc2ccc(F)cc2)n1` reads active: 73.2%; that for `CC1(C)OC(=O)N2CCc3ccccc3C21C` (stereo not given), active: 40.5%; that for `CCc1ccc(-n2c(=O)c3c4c(sc3n(CC(=O)N3CCC(C)CC3)c2=O)CCC4)cc1`, -5.63%.
With `Cc1ccc(NC(=O)C2CCCN(S(=O)(=O)c3cccc4cccnc34)C2)cc1` (stereo not given), the inhibition was 25.3%.
The result for `Cc1ccc(Cl)cc1NC(=O)c1oc2ccc(S(=O)(=O)N3CCCCC3)cc2c1C` reads 16.8%; that for `COc1ccc(OCc2ccc(-c3nc(C#N)c(NC(C)c4ccccc4)o3)o2)cc1` (stereo not given), 11.3%.
The result for `CCOc1ccc2nc(N3CCCC(C(=O)NCCc4ccc(OCC)c(OCC)c4)C3)sc2c1` (stereo not given) reads 8.27%; that for `Cc1cccc(C)c1Nc1c(-c2ccccn2)nc2c(C)cccn12`, 1.98%; that for `Cc1nn(CC(=O)Nc2ccc(OC(F)(F)F)cc2)c(=O)c2c(C)n(-c3ccc(Cl)cc3)nc12`, 19.2%.
Take `COc1ccc(CCNC(=O)c2nc(-c3ccc(Cl)cc3)n3c2CCCCC3)c(OC)c1`: the inhibition came to 7.23%.
As for `COC(=O)c1ccccc1NC(=O)C1=CC(c2cccs2)=NS(=O)(=O)N1C`, the inhibition was -12.8%.
As to `Cc1cc(OCC(=O)Nc2cc(-c3nc4ncccc4o3)ccc2C)ccc1Cl`, the inhibition was 13.6%.
With `COc1ccc(-n2nc3cc(C)c(NC(=O)c4ccc(-c5ccc(Cl)cc5)o4)cc3n2)cc1` the figure was -6.37%; with `Cc1ccc(S(=O)(=O)c2nnn(-c3ccc(F)c(Cl)c3)c2N)cc1`, 15.2%.
Consider `CCc1ccc(S(=O)(=O)Nc2ccc3c(c2)n(C)c(=O)c(=O)n3C)cc1`, for which the inhibition was -12%.
The result for `CCC(=O)N1CCc2cc(Br)cc(S(=O)(=O)CCC(=O)N3CCN(c4cccc(C)c4)C(C)C3)c21` (stereo not given) reads -2.49%; that for `Cc1ccc2c(c1)C(c1ccc(F)cc1)N(C(=O)c1ccc(S(=O)(=O)N3CCCCC3)cc1)CC(=O)N2` (stereo not given), -9.16%.
With `COc1ccc(C(=O)Nc2ccc3nc(SCC(=O)N4CCc5ccccc54)sc3c2)cc1` the figure was 19.1%; with `COc1ccc(NC(=O)CCNS(=O)(=O)c2ccc3c(c2)CCCC(=O)N3)cc1Cl`, -1.56%; with `O=C(NCc1ccc(Cl)cc1)NCc1noc2ccccc12`, 23.9%.
Regarding `Cc1cc(C)c2sc(NNC(=O)C3COc4ccccc4O3)nc2c1` (stereo not given), the inhibition was active: 32.5%.
Regarding `O=C(Cc1cccs1)NC1CC(=O)N(c2ccc(F)cc2)C1` (stereo not given), the inhibition was -6.97%.
In the case of `Cc1oc(-c2ccc(C(=O)NCc3ccccc3)cc2)nc1CN1CCc2ccccc21`, the inhibition amounted to 0.18%.
With `COc1ccc(-c2nc3ccccc3s2)cc1NC(=O)c1ccccc1F` the figure was -3.31%; with `CCOCCCNC(=O)c1ccc(-n2c(-c3ccccc3)cc3c2CCC(C)C3)cc1` (stereo not given), -7.21%; with `COc1ccc2c(c1)cc1c(=O)n(CC(=O)NC(C)CCc3ccccc3)nc(C)n12` (stereo not given), 15.8%.
On to `Cc1ccc(-c2ccc(=O)n(CC(=O)NCCc3ccccc3)n2)cc1`, for which the inhibition was -4.04%.
Turning to `O=S(=O)(NCCc1csc2nc(-c3ccccc3)nn12)c1cc(F)ccc1F`, the inhibition was -15.6%.
Consider `Cc1ccc(-n2ncc3c(Nc4cccc(C(=O)O)c4)ncnc32)cc1`, for which the inhibition was -7.87%.
With `Cc1ccc(NC(=O)C(=O)NCC(c2cccnc2)N2CCN(Cc3ccccc3)CC2)cc1F` (stereo not given) the figure was 9.23%; with `Cc1cccc(/C=C/c2onc(C)c2S(=O)(=O)N2CCC(C(=O)N3CCCCC3)CC2)c1`, -9.81%.
With `COc1ccc(-c2[nH]c(-c3ccc(Cl)cc3)nc2SCC(=O)NCC2CCCO2)cc1` (stereo not given) the figure was 26%; with `CCCCn1cnc2cc(NCc3ccccc3Cl)ccc21`, 28.3%.
The result for `CCCSCCCNC(=O)C1CCN(c2nc3ccccc3nc2C(F)(F)F)CC1` reads -10.3%; that for `CC(=O)N1CCCc2cc(S(=O)(=O)N3CCCC(C(=O)N4CCN(c5ccccc5)CC4)C3)ccc21` (stereo not given), -5.13%; that for `Cc1ccc(S(=O)(=O)n2nc(-c3ccc(Cl)cc3)nc2NCc2ccc(F)cc2)cc1`, 7.54%.
For `COc1ccc(CNC(=O)c2cc3cc(OC)ccc3oc2=O)cc1`, the inhibition turned out to be 19.8%.
With `Cc1cc(C)c2c(CC(=O)Nc3ccc(S(=O)(=O)Nc4nc(C)cc(C)n4)cc3)coc2c1`, the inhibition was -19.3%.
Take `CCOc1ccc(NC(=O)Cn2c(=O)n(CCCCCC(=O)NCc3ccccc3)c(=O)c3sccc32)cc1`: the inhibition was 8.42%.
With `CCc1ccc2occ(CC(=O)Nc3c(C(=O)c4ccc(C)cc4)oc4ccccc34)c2c1` the figure was -7.55%; with `COc1ccc(S(=O)(=O)Nc2c(C)nc3nc[nH]n3c2=O)cc1`, 22.8%.
With `Cc1ccc2c(CNCc3ccc(C)o3)c(C(=O)O)n(Cc3ccccc3C)c2c1` the figure was 8.75%.
With `CCc1ccccc1NS(=O)(=O)c1ccc2[nH]cc(C(=O)N(CC)Cc3ccccc3)c(=O)c2c1` the figure was 9.82%; with `CCCc1ccc(OCC(=O)Nc2sc(C(=O)OCC)c(C)c2C(=O)OCC)cc1`, 11.6%; with `CSc1ncc(C(=O)NCc2ccccc2F)c(-c2ccccc2)n1`, 3.18%.
`Cc1ccc(C)c(N2CCN(S(=O)(=O)c3ccc4c(c3)C(C(C)C)C(=O)N4)CC2)c1` (stereo not given): the inhibition is -0.456%.
With `C=CCc1ccc(OCCCNCc2ccccc2)c(OC)c1` the figure was active: 62.2%; with `CC(C)C1Oc2ccccc2N(CC(=O)N2CCOCC2)C1=O` (stereo not given), active: 37.9%.
Take `CCOC(=O)c1ccc(CN(Cc2ccc(F)cc2)S(=O)(=O)c2ccc(F)c(C(=O)Nc3c(C)cccc3C)c2)cc1`: the inhibition was determined as 10.2%.
The result for `COc1cccc(-c2nc(CS(=O)(=O)CC(=O)N3CCN(c4cc(C)ccc4C)CC3)c(C)o2)c1` reads 24.6%.
The result for `CCc1ccc(C2CC(=O)c3c([nH]c(C(=O)OC4CCCC4)c3C)C2)cc1` (stereo not given) reads 25.1%; that for `COc1ccc(OC)c(C2CC(=O)Nc3c2c(=O)[nH]c2ncnn32)c1` (stereo not given), 1.4%.
For `COc1ccc(C2NC(=O)N(C)C3=C2C(=O)N(c2ccc(C(=O)O)cc2)C3)cc1` (stereo not given), the inhibition is -5.08%.
The result for `Cc1nn(C)cc1CN(C)C(=O)c1cc(-c2ccccc2)nc2ccc(Br)cc12` reads 4.14%.
For `O=C(Nc1cccc(C(F)(F)F)c1)c1cnn(-c2cccc(F)c2)c1C1CCNCC1`, the inhibition stood at 6.68%.
With `O=C(CCNC(=O)c1ccc([N+](=O)[O-])cc1)NC1CCCc2ccccc21` (stereo not given) the figure was active: 32.3%; with `CCOc1ccc(CCNC(=O)c2oc(=O)c3ccccc3c2-c2ccc(C)cc2)cc1OCC`, -7.87%; with `Cc1ccc(NC(=O)CCS(=O)(=O)c2ccc(Br)s2)c(Br)c1`, 0.752%.
As for `CC(C)(C)c1ccc(C(=O)NCCc2csc(-c3ccc(Cl)cc3)n2)cc1`, the inhibition was -8.48%.
With `CC1Cc2ccccc2N1C(=O)CSc1nc2ccc(NC(=O)COc3ccccc3)cc2s1` (stereo not given), the inhibition is -17.1%.
Take `CC1=C(C(=O)NCc2cccc(F)c2)C2(CCCCC2)OC1=O`: the inhibition is -15.2%.
`CCOC(=O)C(C)Sc1ccc2nnc(CCNS(=O)(=O)c3ccc(C)cc3)n2n1` (stereo not given): the inhibition is -1.41%.
The result for `N#Cc1c(C(F)(F)F)cc(-c2cccs2)nc1SCc1ccc(F)cc1` reads -8.9%; that for `Cc1ccc(CNCc2ccccc2Cl)s1`, -4.68%; that for `COc1ccc(-c2nnc(SCC(=O)NCCC(C)C)nc2-c2ccc(OC)c(OC)c2)cc1OC`, -5.59%.
Regarding `COCc1cc(C)nc2c1C(=O)NC(c1ccc(F)cc1)N2Cc1ccccc1` (stereo not given), the inhibition is 5.4%.
With `CCCS(=O)(=O)N1CCC(C(=O)NCCCN2CCC(Cc3ccccc3)CC2)CC1` the figure was active: 32.9%; with `COC(=O)c1cc2oc(C)cc2n1CC(=O)Nc1ccc(C(C)C)cc1`, 4.48%; with `CCc1cccc(C)c1NC(=O)Cn1nc(C)n2cccc2c1=O`, -0.729%.
The result for `COc1ccc(C(=O)Nc2ccc(N(C)Cc3ccccc3)c(C(=O)O)c2)cc1` reads -0.969%; that for `CCOC(=O)Cn1c(=O)n(CC2CCCO2)c2nc(-c3ccccc3)nc(C(N)=O)c21` (stereo not given), -9.92%.
Regarding `CCOC(=O)C1=C(CN2CCN(c3ccccc3OC)CC2)NC(=O)NC1c1ccccc1` (stereo not given), the inhibition was -11%.
With `O=C(CN1CCCN(Cc2ccccc2F)S1(=O)=O)Nc1ccc(F)c(Cl)c1` the figure was -10.4%; with `CC(C)NC(=O)N1[C@H](c2cccs2)[C@@H](C)C(=O)[C@@H](C)[C@@H]1c1cccs1`, 22.3%; with `COc1ccc(-n2nc(C(=O)Nc3cc(C)ccn3)c3c4ccccc4n(C)c3c2=O)cc1`, 8.26%.
Regarding `CCCCn1c(=O)n(-c2cc(OC)ccc2OC)c(=O)c2c3c(sc21)CN(C(C)=O)CC3`, the inhibition stood at 7.67%.
In the case of `O=C(CC1N=C2c3ccccc3N=C(SCc3ccccc3Cl)N2C1=O)NCCc1ccccc1` (stereo not given), the inhibition is -12.1%.
The result for `Cc1cc(Nc2cccc(Cl)c2)nc2ccc(NC(=O)c3cncc(Br)c3)cc12` reads -11.6%.
